System: mitochondrial complex IV (cytochrome c oxidase)
Assay: Enzymatic activity of hepatic mitochondrial complex IV
Format: biochemical, dog
Settings: hepatic mitochondria of treated non-septic dogs; mean ± SD
Text: As part of our assessment of mitochondrial function, we also measured the enzymatic activity of hepatic mitochondrial complex IV based on the rationale of Levy et al (10), since these investigators considered that dysfunction of complex IV was the most important determinant of abnormal mitochondrial function in SS. We determined complex IV activity spectrophotometrically by a temperature-controlled Ultrospec™ 2100 ultraviolet-visible spectrophotometer (Biopharmacia Biotech, Uppsala, Sweden) (17). Complex IV activity was measured at 25° C. by monitoring the absorbance decrease of reduced cytochrome c at 550 nm.

SMILES: O=C([O-])c1cc(O)ccc1O.[Na+] [GSS, 2,5-dihydroxybenzoic acid sodium salt]
- enzymatic activity of mitochondrial complex IV: 3.01±0.66 umol/min/mg protein

Source: patent US9833425B2, “Gentisic acid is used to improve systemic hemodynamics, hepatic mitochondrial function and lactate acidemia in patients with septic shock” (priority 2015, dated 2017)
